From PubChem BioAssay (NCI) come the findings set out here.

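Cultured in 96-well plates, cells were exposed to test compound for 48 hours across five concentrations. At the GI50, growth is halved.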 For part of its entries the source gives two or more results. The other results are left out here. An entry can have further records. For part of these data: A record mostly stands for its own series of concentrations, not given here; some values may only mark the edge of a range. For part of these data: The values listed for one entry are repeats (runs, samples, wells, individuals or studies). Brackets tell where a record comes from. Letters hold for one entry only.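 At the TGI there is no net growth.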

Some test systems named below: RPMI-8226 leukemia; SK-MEL-28 melanoma; MDA-N; NCI-H460 lung; K-562 leukemia; UACC-62 melanoma; MDA-MB-435; MDA-MB-231 breast; SN12C renal; CCRF-CEM leukemia; XF 498 CNS; SF-268 CNS.
Holding throughout (experiment): NCI tumour cell line growth inhibition, 48 h

In the case of `O=[N+]([O-])c1cccc2nc3ccccc3c(NCCO)c12`, the TGI was 3.37 nM and > 100 nM with RPMI-8226 leukemia; 5.17 nM, 1.74 nM, > 100 nM in the test on SK-MEL-28 melanoma; 5.36 nM and 0.132 nM in the test on MDA-N; 2.38 nM and 0.226 nM in the test on NCI-H460 lung; 3.53 nM and > 100 nM with K-562 leukemia; 5.92 nM, 2.06 nM, > 100 nM in the test with UACC-62 melanoma. The TGI in the test on MDA-MB-435 is 3.67 nM and 0.207 nM; in the test with MDA-MB-231 breast it was 7.88 nM and 0.784 nM.

Consider `CO[C@@H](C(=O)N1Cc2[nH]nc(NC(=O)c3ccc(N4CCN(C)CC4)cc3)c2C1)c1ccccc1`, for which the GI50 was 1.73 µM [sample A, mean of 2 tests] and 140 nM [sample B, mean of 2 tests] with SN12C renal; 39.3 µM [sample A, 1 test] and 47.1 nM [sample B, mean of 2 tests] in the test on CCRF-CEM leukemia.

Turning to `O=CC(NC(=O)N(CCCl)N=O)C(O)C(O)C(O)CO` (configuration not stated), the GI50 with XF 498 CNS is > 1.25 mM [1 test] and 19.8 µM [mean of 2 tests] and 580 µM [mean of 5 tests]. For the same molecule, the TGI in the test with SF-268 CNS is reported as 106 µM, > 1.25 mM, > 1.18 mM.
